{"source": "the supplement of paper PMC8728848", "assay_in_all_cases": "glycan array binding signal (z-score within array); higher = stronger binding", "settings_in_all_cases": "glycan notation: IUPAC condensed, linker removed", "key": {"Neu5Ac(a2-3)Gal": {"target": "Neu5Ac(a2-3)Gal", "in_short": "(§1)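 Glycan array binding is given as a within-array Z-score, which can be read as non-binding when negative. The arrays, 3228 of them, came from the Consortium for Functional Glycomics database and were retained only where the protein sequence was available. Z-scores were averaged across arrays of the same protein sequence at different concentrations or buffers and across linkers.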"}, "[1]": {"target": "Neu5Ac(a2-3)Gal(b1-3)GalNAc", "in_short": "as §1"}, "[2]": {"target": "Neu5Ac(a2-3)Gal(b1-3)GalNAc(b1-3)Gal(a1-4)Gal(b1-4)Glc", "in_short": "as §1"}, "[3]": {"target": "Neu5Ac(a2-3)Gal(b1-3)GalNAc(b1-3)Gal(b1-4)GlcNAc", "in_short": "as §1"}, "[4]": {"target": "Neu5Ac(a2-3)Gal(b1-3)GalNAc(b1-4)[Neu5Ac(a2-3)]Gal(b1-4)Glc", "in_short": "as §1"}, "[5]": {"target": "Neu5Ac(a2-3)Gal(b1-3)GalNAc6S", "in_short": "as §1"}, "[6]": {"target": "Neu5Ac(a2-3)Gal(b1-3)GlcNAc", "in_short": "as §1"}, "[7]": {"target": "Neu5Ac(a2-3)Gal(b1-3)GlcNAc(b1-3)Gal(b1-3)GlcNAc", "in_short": "as §1"}, "[8]": {"target": "Neu5Ac(a2-3)Gal(b1-3)GlcNAc6S", "in_short": "as §1"}, "[9]": {"target": "Neu5Ac(a2-3)Gal(b1-3)[Fuc(a1-4)]GlcNAc", "in_short": "as §1"}, "[10]": {"target": "Neu5Ac(a2-3)Gal(b1-3)[Fuc(a1-4)]GlcNAc(b1-3)Gal(b1-3)[Fuc(a1-4)]GlcNAc", "in_short": "as §1"}, "[11]": {"target": "Neu5Ac(a2-3)Gal(b1-3)[Fuc(a1-4)]GlcNAc(b1-3)Gal(b1-4)[Fuc(a1-3)]GlcNAc", "in_short": "as §1"}, "[12]": {"target": "Neu5Ac(a2-3)Gal(b1-3)[Neu5Ac(a2-3)Gal(b1-4)]GlcNAc", "in_short": "as §1"}, "[13]": {"target": "Neu5Ac(a2-3)Gal(b1-3)[Neu5Ac(a2-6)]GalNAc", "in_short": "as §1"}, "Neu5Ac(a2-3)Gal(b1-4)Glc": {"target": "Neu5Ac(a2-3)Gal(b1-4)Glc", "in_short": "as §1"}, "[14]": {"target": "Neu5Ac(a2-3)Gal(b1-4)GlcNAc", "in_short": "as §1"}, "[15]": {"target": "Neu5Ac(a2-3)Gal(b1-4)GlcNAc(b1-2)Man(a1-3)[GlcNAc(b1-2)Man(b1-4)GlcNAc(b1-2)Man(a1-6)]Man(b1-4)GlcNAc(b1-4)GlcNAc", "in_short": "as §1"}, "[16]": {"target": "Neu5Ac(a2-3)Gal(b1-4)GlcNAc(b1-2)Man(a1-3)[Neu5Ac(a2-6)Gal(b1-4)GlcNAc(b1-2)Man(a1-6)]Man(b1-4)GlcNAc(b1-4)GlcNAc", "in_short": "as §1"}, "[17]": {"target": "Neu5Ac(a2-3)Gal(b1-4)GlcNAc(b1-3)Gal(b1-3)GlcNAc", "in_short": "as §1"}, "[18]": {"target": "Neu5Ac(a2-3)Gal(b1-4)GlcNAc(b1-3)Gal(b1-4)GlcNAc", "in_short": "as §1"}, "[19]": {"target": "Neu5Ac(a2-3)Gal(b1-4)GlcNAc(b1-3)Gal(b1-4)GlcNAc(b1-3)Gal(b1-4)GlcNAc", "in_short": "as §1"}, "[20]": {"target": "Neu5Ac(a2-3)Gal(b1-4)GlcNAc(b1-3)Gal(b1-4)[Fuc(a1-3)]GlcNAc", "in_short": "as §1"}, "[21]": {"target": "Neu5Ac(a2-3)Gal(b1-4)GlcNAc(b1-3)GalNAc", "in_short": "as §1"}, "[22]": {"target": "Neu5Ac(a2-3)Gal(b1-4)GlcNAc(b1-6)[Gal(b1-3)]GalNAc", "in_short": "as §1"}, "[23]": {"target": "Neu5Ac(a2-3)Gal(b1-4)GlcNAc(b1-6)[Neu5Ac(a2-3)Gal(b1-3)]GalNAc", "in_short": "as §1"}, "[24]": {"target": "Neu5Ac(a2-3)Gal(b1-4)GlcNAc6S", "in_short": "as §1"}, "[25]": {"target": "Neu5Ac(a2-3)Gal(b1-4)[Fuc(a1-3)]GlcNAc", "in_short": "as §1"}, "[26]": {"target": "Neu5Ac(a2-3)Gal(b1-4)[Fuc(a1-3)]GlcNAc(b1-3)Gal", "in_short": "as §1"}, "[27]": {"target": "Neu5Ac(a2-3)Gal(b1-4)[Fuc(a1-3)]GlcNAc(b1-3)Gal(b1-4)GlcNAc", "in_short": "as §1"}, "[28]": {"target": "Neu5Ac(a2-3)Gal(b1-4)[Fuc(a1-3)]GlcNAc(b1-3)Gal(b1-4)[Fuc(a1-3)]GlcNAc(b1-3)Gal(b1-4)[Fuc(a1-3)]GlcNAc", "in_short": "as §1"}, "[29]": {"target": "Neu5Ac(a2-3)Gal(b1-4)[Fuc(a1-3)]GlcNAc(b1-3)GalNAc", "in_short": "as §1"}, "[30]": {"target": "Neu5Ac(a2-3)Gal(b1-4)[Fuc(a1-3)]GlcNAc(b1-6)[Gal(b1-3)]GalNAc", "in_short": "as §1"}, "[31]": {"target": "Neu5Ac(a2-3)Gal(b1-4)[Fuc(a1-3)]GlcNAc(b1-6)[Neu5Ac(a2-3)Gal(b1-3)]GalNAc", "in_short": "as §1"}, "[32]": {"target": "Neu5Ac(a2-3)Gal(b1-4)[Fuc(a1-3)]GlcNAc6S", "in_short": "as §1"}, "[33]": {"target": "Neu5Ac(a2-3)Gal6S(b1-4)GlcNAc", "in_short": "as §1"}, "[34]": {"target": "Neu5Ac(a2-3)Gal6S(b1-4)[Fuc(a1-3)]GlcNAc", "in_short": "as §1"}, "Neu5Ac(a2-3)GalNAc": {"target": "Neu5Ac(a2-3)GalNAc", "in_short": "as §1"}, "[35]": {"target": "Neu5Ac(a2-3)GalNAc(b1-4)GlcNAc", "in_short": "as §1"}, "[36]": {"target": "Neu5Ac(a2-3)[GalNAc(b1-4)]Gal(b1-4)Glc", "in_short": "as §1"}, "[37]": {"target": "Neu5Ac(a2-3)[GalNAc(b1-4)]Gal(b1-4)GlcNAc", "in_short": "as §1"}, "[38]": {"target": "Neu5Ac(a2-3)[Neu5Ac(a2-6)]GalNAc", "in_short": "as §1"}, "Neu5Ac(a2-6)Gal": {"target": "Neu5Ac(a2-6)Gal", "in_short": "as §1"}}, "note": "The other results are listed elsewhere or left out."}
{"binder": "Neuropilin-2 (Homo sapiens), O60462 (protein) MDMFPLTWVFLALYFSRHQVRGQPDPPCGGRLNSKDAGYITSPGYPQDYPSHQNCEWIVYAPEPNQKIVLNFNPHFEIEKHDCKYDFIEIRDGDSESADLLGKHCGNIAPPTIISSGSMLYIKFTSDYARQGAGFSLRYEIFKTGSEDCSKNFTSPNGTIESPGFPEKYPHNLDCTFTILAKPKMEIILQFLIFDLEHDPLQVGEGDCKYDWLDIWDGIPHVGPLIGKYCGTKTPSELRSSTGILSLTFHTDMAVAKDGFSARYYLVHQEPLENFQCNVPLGMESGRIANEQISASSTYSDGRWTPQQSRLHGDDNGWTPNLDSNKEYLQVDLRFLTMLTAIATQGAISRETQNGYYVKSYKLEVSTNGEDWMVYRHGKNHKVFQANNDATEVVLNKLHAPLLTRFVRIRPQTWHSGIALRLELFGCRVTDAPCSNMLGMLSGLIADSQISASSTQEYLWSPSAARLVSSRSGWFPRIPQAQPGEEWLQVDLGTPKTVKGVIIQGARGGDSITAVEARAFVRKFKVSYSLNGKDWEYIQDPRTQQPKLFEGNMHYDTPDIRRFDPIPAQYVRVYPERWSPAGIGMRLEVLGCDWTDSKPTVETLGPTVKSEETTTPYPTEEEATECGENCSFEDDKDLQLPSGFNCNFDFLEEPCGWMYDHAKWLRTTWASSSSPNDRTFPDDRNFLRLQSDSQREGQYARLISPPVHLPRSPVCMEFQYQATGGRGVALQVVREASQESKLLWVIREDQGGEWKHGRIILPSYDMEYQIVFEGVIGKGRSGEIAIDDIRISTDVPLENCMEPISAFAGENFKVDIPEIHEREGYEDEIDDEYEVDWSNSSSATSGSGAPSTDKEKSWLYTLDPILITIIAMSSLGVLLGATCAGLLLYCTCSYSGLSSRSCTTLENYNFELYDGLKHKVKMNHQKCCSEA", "values": [{"measurement": "glycan array binding signal (z-score)", "setting": "Neu5Ac(a2-3)Gal", "result": -0.212}, {"measurement": "glycan array binding signal (z-score)", "setting": "[1]", "result": -0.714}, {"measurement": "glycan array binding signal (z-score)", "setting": "[2]", "result": -0.107}, {"measurement": "glycan array binding signal (z-score)", "setting": "[3]", "result": -0.318}, {"measurement": "glycan array binding signal (z-score)", "setting": "[4]", "result": -0.367}, {"measurement": "glycan array binding signal (z-score)", "setting": "[5]", "result": -0.43}, {"measurement": "glycan array binding signal (z-score)", "setting": "[6]", "result": -0.135}, {"measurement": "glycan array binding signal (z-score)", "setting": "[7]", "result": -0.476}, {"measurement": "glycan array binding signal (z-score)", "setting": "[8]", "result": -0.546}, {"measurement": "glycan array binding signal (z-score)", "setting": "[9]", "result": -0.253}, {"measurement": "glycan array binding signal (z-score)", "setting": "[10]", "result": 0.377}, {"measurement": "glycan array binding signal (z-score)", "setting": "[11]", "result": -0.307}, {"measurement": "glycan array binding signal (z-score)", "setting": "[12]", "result": 0.03}, {"measurement": "glycan array binding signal (z-score)", "setting": "[13]", "result": -0.262}, {"measurement": "glycan array binding signal (z-score)", "setting": "Neu5Ac(a2-3)Gal(b1-4)Glc", "result": -0.126}, {"measurement": "glycan array binding signal (z-score)", "setting": "[14]", "result": -0.103}, {"measurement": "glycan array binding signal (z-score)", "setting": "[15]", "result": -0.909}, {"measurement": "glycan array binding signal (z-score)", "setting": "[16]", "result": -0.501}, {"measurement": "glycan array binding signal (z-score)", "setting": "[17]", "result": -0.964}, {"measurement": "glycan array binding signal (z-score)", "setting": "[18]", "result": -0.122}, {"measurement": "glycan array binding signal (z-score)", "setting": "[19]", "result": -0.169}, {"measurement": "glycan array binding signal (z-score)", "setting": "[20]", "result": -0.167}, {"measurement": "glycan array binding signal (z-score)", "setting": "[21]", "result": -0.64}, {"measurement": "glycan array binding signal (z-score)", "setting": "[22]", "result": -0.255}, {"measurement": "glycan array binding signal (z-score)", "setting": "[23]", "result": -0.664}, {"measurement": "glycan array binding signal (z-score)", "setting": "[24]", "result": 0.663}, {"measurement": "glycan array binding signal (z-score)", "setting": "[25]", "result": -0.282}, {"measurement": "glycan array binding signal (z-score)", "setting": "[26]", "result": -0.587}, {"measurement": "glycan array binding signal (z-score)", "setting": "[27]", "result": 3.79}, {"measurement": "glycan array binding signal (z-score)", "setting": "[28]", "result": -0.375}, {"measurement": "glycan array binding signal (z-score)", "setting": "[29]", "result": 1.02}, {"measurement": "glycan array binding signal (z-score)", "setting": "[30]", "result": -0.31}, {"measurement": "glycan array binding signal (z-score)", "setting": "[31]", "result": 2.82}, {"measurement": "glycan array binding signal (z-score)", "setting": "[32]", "result": -0.131}, {"measurement": "glycan array binding signal (z-score)", "setting": "[33]", "result": 0.172}, {"measurement": "glycan array binding signal (z-score)", "setting": "[34]", "result": -0.394}, {"measurement": "glycan array binding signal (z-score)", "setting": "Neu5Ac(a2-3)GalNAc", "result": -0.766}, {"measurement": "glycan array binding signal (z-score)", "setting": "[35]", "result": 0.369}, {"measurement": "glycan array binding signal (z-score)", "setting": "[36]", "result": -0.339}, {"measurement": "glycan array binding signal (z-score)", "setting": "[37]", "result": -0.107}, {"measurement": "glycan array binding signal (z-score)", "setting": "[38]", "result": -0.602}, {"measurement": "glycan array binding signal (z-score)", "setting": "Neu5Ac(a2-6)Gal", "result": -0.513}]}
